Values marked as one replicate rest on one cluster of the flow cell; about a third of the high ones do not repeat.
tested on: ATP; assay: switch fluorescence ratio, 500 uM ATP over buffer (Cy3 cluster intensity, sum of 5 cycles each) (fold (ratio)); higher = stronger signal-on switching upon ATP binding; sequences stand for … in TCGTCGGCAGCGTCAGATGTGTATAAGAGACAGTTTTTTTTTTTTTTTTTTTTTTTTT…TC; settings: aptamer strand: ATP DNA aptamer (quencher-CACCTGGGGGAGTATTGCGGAGGAAGG + anchor), 100 nM annealed; ATP concentration: 500 uM; one replicate
Outline: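 Imaging in selection buffer was followed by imaging after 15 min with 500 uM ATP at 22 °C, for Cy3-labelled switching-strand clusters annealed to 100 nM quencher-labelled ATP aptamer on a modified Illumina MiSeq flow-cell. Five of these buffer/ATP cycles ran, separated by NaOH stripping and re-annealing. The fluorescence ratio per cluster is summed target-cycle over summed buffer-cycle Cy3 intensity, averaged per switch-domain sequence; clusters outside 100-1000 RFU were removed.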
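Further: ATP exposure 15 min at 22 °C before imaging.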

Sequence	switch fluorescence ratio
TCGGTATCTG	1.08
TCGGTCGGCG	0.967
TCGGTGCAGC	0.935
TCGGTGTTGA	1.04
TCGGTTATAT	0.975
TCGGTTATGG	0.983
TCGGTTGCCA	1.02
TCGGTTGTAT	0.96
TCGTAACTCA	1.01
TCGTAAGTTT	0.966
TCGTACCCGC	1.34
TCGTAGATTG	0.96
TCGTAGCACT	1.55
TCGTAGCTCA	1.49
TCGTATCAGA	1.01
TCGTATCTG	0.878
TCGTATTCGT	0.96
TCGTCAAA	1.03
TCGTCGCTTC	1.27
TCGTCTGACA	0.976
TCGTGACGCG	0.957
TCGTGAGGGT	1.03
TCGTGCGCCA	1.11
TCGTGCGCCC	1.47
TCGTGCTCGG	0.994

Sequence	switch fluorescence ratio
TCGTGCTCTT	0.985
TCGTGGACCA	1.01
TCGTGGATTA	1
TCGTTAAGAT	0.976
TCGTTAGTAA	1.01
TCGTTCGCTT	1.79
TCGTTGGGA	0.995
TCGTTGTCTG	1.04
TCGTTGTTTC	1.22
TCTAAAAACA	1.02
TCTAAAGGAG	0.971
TCTAAATCGG	1.03
TCTAACTCG	0.973
TCTAAGATAG	1.03
TCTAAGGACT	1.03
TCTAAGGTGT	1.29
TCTACATACA	1.37
TCTACCATGA	1.02
TCTACTACGC	1.42
TCTAGACCGC	1.09
TCTAGACGGA	1.04
TCTAGATCGG	1.02
TCTAGGCATG	0.999
TCTAGGGCTA	1.01
TCTAGGTCAC	1.03

Sequence	switch fluorescence ratio
TCTAGGTTGG	0.975
TCTAGTCCTA	1.02
TCTAGTTGCT	1.01
TCTATACTCG	1.08
TCTATAGTGG	0.983
TCTATATCAT	0.98
TCTATGGACG	1.08
TCTATTAACC	1.03
TCTCATTATT	1.03
TCTCCACTCA	1.14
TCTCCAGAAG	1
TCTCCATTCA	0.995
TCTCCTGCTG	1.27
TCTCGAATCG	0.964
TCTCGAGTCA	0.971
TCTCGATCGG	1.03
TCTCGCAGCT	1.51
TCTCGCCACC	1.15
TCTCGCTAAA	1.11
TCTCGCTCTC	1.62
TCTCGGAATG	1.06
TCTCGGCGAA	1.18
TCTCGGCTTG	0.986
TCTCGTTGTA	1.03
TCTCTAAATG	1.11

Sequence	switch fluorescence ratio
TCTCTCACCT	1.1
TCTCTCGTG	1.02
TCTCTGAC	1.15
TCTCTGCCGA	1.28
TCTCTGTAGA	1.01
TCTCTGTGAG	0.956
TCTCTTGTTC	0.979
TCTCTTTGGT	0.997
TCTGAAAATT	1.05
TCTGACCTTG	0.985
TCTGAGAC	1.03
TCTGAGACTC	1.09
TCTGAGTCAG	0.993
TCTGAGTTTC	1.02
TCTGCAGAT	1.05
TCTGCCAGGC	1.12
TCTGCCATGC	2.1
TCTGCCGCGC	1.96
TCTGCGTAAA	1.03
TCTGCGTGCT	1.02
TCTGCTCCTC	1.16
TCTGCTGAAT	1.04
TCTGGAAAGT	0.983
TCTGGAGCTT	3.75
TCTGGAGTTT	0.996
